The test can be described thus: qHTS drug screen for cell cycle checkpoint inhibitors in PARPi-resistant BRCA-mutant ovarian cancer cell lines. (AID 1963452). The note with it: PEO1/OlaR viability, CellTiter-Glo luminescence, 96 h. The essentials: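 PEO1, PEO4 and PEO1/OlaR ovarian cancer cells, 600 per well, exposed 96 h at 37C to a dilution series. Viability read by CellTiter-Glo luminescence, normalized to DMSO and empty wells; activity summarized as Z-AUC.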
On the technique in general: Quantitative high-throughput screening tests each substance at several concentrations.

Where [1] appears, read: measured here: PEO1 parental viability.

The other results are listed elsewhere or left out. Shown are side measurements of this screen, not its main read-out; they come without a call. Potencies come from curve fits of mixed quality, noted in brackets.
Tags give direction and shape of the fitted curve.

`FC(F)(F)c1ccc(Nc2nc(-c3c(C(F)(F)F)nc4ccccn34)cs2)cc1`: the half-maximal activity concentration (AC50) (commonly the concentration giving half of the maximal activity seen) is 0.0219 µM [falling, full curve] under setting [1] and 0.0245 µM [falling, full curve, poor fit] (measured here: PEO4 viability).

On to `CC[C@@H](C)Nc1cc(C(=O)NC2CC3CC[C@@H](C2)N3c2ccc(C(=O)C3CC3)cn2)c(C)cc1C(N)=O` (stereo partly drawn), for which the AC50 was 0.174 µM [falling, full curve] under setting [1] and 0.0549 µM [falling, full curve] (measured here: PEO4 viability).

`CCC[C@H](N[C@H]1CCc2cc(F)cc(F)c2C1)C(=O)Nc1cn(C(C)(C)CNCC(C)(C)C)cn1`: the concentration at half-maximal activity (AC50) under setting [1] is 24.5 µM [falling, single point] and the concentration at half-maximal activity (AC50) (measured here: PEO4 viability) was 13.8 µM [falling, single point].

In the case of `CC(C)n1ncnc1-c1cn2c(n1)-c1ccc(O[C@@H](C)C(N)=O)cc1OCC2`, the concentration at half-maximal activity (AC50) under setting [1] is 4.9 µM [falling, partial curve] and the AC50 (measured here: PEO4 viability) was 17.4 µM [falling, partial curve].

As for `CCOc1cc2ncc(C#N)c(Nc3ccc(OCc4ccccn4)c(Cl)c3)c2cc1NC(=O)/C=C/CN(C)C`, the AC50 runs as follows: under setting [1], 2.19 µM [falling, partial curve]; (measured here: PEO4 viability) 12.3 µM [falling, partial curve, poor fit].

Regarding `CC/C(=C(/c1ccc(/C=C/C(=O)O)cc1)c1ccc2[nH]ncc2c1)c1ccc(F)cc1Cl`, the AC50 under setting [1] was 17.4 µM [falling, single point] and the concentration at half-maximal activity (AC50) (measured here: PEO4 viability) is 19.5 µM [falling, single point].

For `Cc1c(NC(=O)c2cc(C(N)=O)nc3cc(F)ccc23)c(C(F)(F)F)nn1Cc1ccc(C#N)cc1`, the AC50 under setting [1] is 0.155 µM [falling, full curve] and the half-maximal activity concentration (AC50) (measured here: PEO4 viability) is 0.245 µM [falling, partial curve, poor fit].

`CCc1cc(C(N)=O)ccc1-n1nc(C(C)C)c2c(-n3cnc(-c4cnn(C)c4)c3)ccnc21`: the AC50 reads like this: under setting [1], 1.74 µM [falling, full curve]; (measured here: PEO4 viability) 3.09 µM [falling, partial curve].

As to `C=CC(=O)Nc1cccc(Nc2nc(Nc3ccc(N4CCN(C(C)=O)CC4)cc3OC)ncc2C(F)(F)F)c1`, the concentration at half-maximal activity (AC50) is, setting by setting: under setting [1], 24.5 µM [falling, single point]; (measured here: PEO4 viability) 24.5 µM [falling, single point].

On to `O=c1sn(-c2cccc3ccccc23)c(=O)n1Cc1ccccc1`, for which the concentration at half-maximal activity (AC50) under setting [1] is 24.5 µM [falling, single point] and the AC50 (measured here: PEO4 viability) was 21.9 µM [falling, single point].

Regarding `COc1cc(N2CCC(N(C)C)CC2)ccc1Nc1ncc(Cl)c(Nc2ccccc2P(C)(C)=O)n1`, the AC50 is 0.436 µM [falling, full curve] under setting [1] and 0.275 µM [falling, full curve] (measured here: PEO4 viability).

On to `CN1C(=O)c2sccc2N(C)c2nc(Nc3ccc(S(N)(=O)=O)cc3)ncc21`, for which the AC50 under setting [1] was 7.76 µM [falling, partial curve, poor fit] and the AC50 (measured here: PEO4 viability) was 1.55 µM [falling, full curve].

For `Cc1ccc(C(=O)OCc2ccc([C@@H](CN)C(=O)Nc3ccc4cnccc4c3)cc2)c(C)c1`, the AC50 is 9.52 µM [falling, partial curve, poor fit] under setting [1] and 6.01 µM [falling, partial curve] (measured here: PEO4 viability).

With `Cc1nc(NC(=O)N2CCC[C@H]2C(N)=O)sc1-c1csc(C(C)(C)C)n1`, the AC50 was 11 µM [falling, partial curve] under setting [1] and 9.77 µM [falling, partial curve, poor fit] (measured here: PEO4 viability).

Take `O=C1NC(=O)/C(=C/c2ccc3nccc(-c4ccncc4)c3c2)S1`: the AC50 reads like this: under setting [1], 1.55 µM [falling, full curve]; (measured here: PEO4 viability) 0.871 µM [falling, full curve].

Consider `N#Cc1ccnc(Nc2cc(C3CCN(C4COC4)CC3)cc(N3CCC(F)(F)C3)n2)c1`, for which the AC50 is 4.9 µM [falling, partial curve] under setting [1] and 17.4 µM [falling, partial curve] (measured here: PEO4 viability).

With `CC(=O)c1ccc2c(c1)c1cc(C(C)=O)ccc1n2CCNC(C)C`, the half-maximal activity concentration (AC50) by setting is: under setting [1], 0.871 µM [falling, full curve]; (measured here: PEO4 viability) 1.1 µM [falling, full curve].

For the compound `NC(=O)[C@H]1CCS[C@@H]2C[C@]3(CCCN3C(=O)Cc3ccc(NC(=O)COc4ccc(Cl)cc4Cl)cc3)C(=O)N12`, the AC50 under setting [1] is 2.45 µM [falling, full curve] and the AC50 (measured here: PEO4 viability) is 6.16 µM [falling, partial curve].

Regarding `COc1cc2c3c(n(CCCn4ccnc4)c(=O)c2cc1OC)-c1cc2c(cc1C3=O)OCO2`, the AC50 reads like this: under setting [1], 0.0044 µM [falling, full curve]; (measured here: PEO4 viability) 1.55 µM [falling, partial curve, poor fit].

Values taken from PubChem BioAssay (NCATS).
